Experimental data as given in PubChem BioAssay (EPA / NIEHS).
For some of these results: The hits were mostly taken out for another list; the other results follow. Results filed as inconclusive are left out. Only a part is listed here, and it is no random draw. A structure can be active in one record and inactive in another. The source made the active and inactive calls. How the source made its calls, unless noted: active means hit-call score of the fitted dose curve at least 0.9, where 1 is the maximum; inactive means score below 0.9.

Assays:
[1] = read-out: Intercellular Adhesion Molecule 1 (ICAM1), ICAM1 (gene 3383); test: BSK_3C_ICAM1: BioMAP Diversity Plus: 3C Assay for Intercellular Adhesion Molecule 1 (ICAM1) Biomarker Activity (AID 2283003); conditions: actives raise or lower the signal; primary human endothelial cells (HUVEC)
Summary of the method: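 Human vascular endothelial primary cells, 3C conditions, 24 h treatment. ICAM-1 by ELISA.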

[2] = target: human Retinoic Acid Receptor gamma (RARg), RARG (gene 5916) (UniProt P13631); test: ATG_RARg_TRANS: Attagene TRANS-FACTORIAL HepG2 Assay for human Retinoic Acid Receptor gamma (RARg) (AID 2283009; active means hit-call score of the fitted dose curve at least 0.9, where 1 is the maximum)
Summary of the method: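 HepG2, RARg-GAL4 TRANS system, 24 h exposure; reporter mRNA by RT-PCR + CE fluorescence; increase over DMSO.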

[3] = target: Retinoic acid receptor RXR-alpha (Homo sapiens) (UniProt P19793); test: ATG_RXRa_TRANS: Attagene TRANS-FACTORIAL HepG2 Assay for human Retinoid X Receptor alpha (RXRa) (AID 2283012; active means hit-call score of the fitted dose curve at least 0.9, where 1 is the maximum)
Summary of the method: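 Cells (HepG2) carried transiently transfected GAL4-responsive reporter units. Following a 24 h chemical incubation, reporter mRNA induction was read via RT-PCR fragment analysis; DMSO served as negative control and baseline.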

[4] = read-out: Interleukin-8 (IL8), CXCL8 (gene 3576); test: BSK_hDFCGF_IL8: BioMAP Diversity Plus: hDFCGF Assay for Interleukin-8 (IL8) Biomarker Activity (AID 2283058); conditions: actives raise or lower the signal; primary human foreskin fibroblasts
Summary of the method: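 hDFCGF human dermal fibroblasts; 24 h chemical exposure; IL-8 by ELISA; bidirectional curve fit vs DMSO baseline; gain or loss of signal scored.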

[5] = read-out: Interferon-gamma inducible Protein 10 (IP10), CXCL10 (gene 3627); test: BSK_KF3CT_IP10: BioMAP Diversity Plus: KF3CT Assay for Interferon-gamma inducible Protein 10 (IP10) Biomarker Activity (AID 2283068); conditions: actives raise or lower the signal; primary human keratinocytes with fibroblasts
Summary of the method: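 Human keratinocyte plus foreskin fibroblast primary co-culture exposed to test chemical for 24 h; IP-10 measured by ELISA. Concentration-response fitted bidirectionally against DMSO control as baseline.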

[6] = BSK_KF3CT_SRB: Viability Assessment in the BioMAP Diversity Plus: KF3CT Assay (AID 2283069); conditions: primary human keratinocytes with fibroblasts;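 further: total protein by sulforhodamine B staining as a cytotoxicity measure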
Summary of the method: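 Human keratinocyte and foreskin fibroblast co-culture exposed to chemical for 24 h. Total protein measured in parallel cultures by 0.1% sulforhodamine B staining after 10% TCA fixation, read at 560 nm; bidirectional fit relative to DMSO.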

[7] = read-out: Macrophage colony-stimulating factor (MCSF), CSF1 (gene 1435); test: BSK_LPS_MCSF: BioMAP Diversity Plus: LPS Assay for Macrophage colony-stimulating factor (MCSF) Biomarker Activity (AID 2283083); conditions: actives raise or lower the signal; primary human HUVEC with PBMC
Summary of the method: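 Human umbilical vein endothelial cells co-cultured with peripheral blood mononuclear cells were exposed to compound for 24 h. M-CSF levels were measured by ELISA, and bidirectional curve fitting used DMSO as the negative control and baseline.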

CD69, CD69 (gene 969) = test: BSK_SAg_CD69: BioMAP Diversity Plus: SAg Assay for CD69 Biomarker Activity (AID 2283089); conditions: actives raise or lower the signal; primary human HUVEC with PBMC;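 further: cell surface CD69 protein quantified by ELISA with fluorescence detection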
Summary of the method: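 ELISA, fluorescence read-out: CD69 on human umbilical vein endothelial cell + PBMC co-culture, 24 h post-dosing. Gain or loss of signal fitted bidirectionally against DMSO baseline.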

[8] = BSK_SAg_SRB: Viability Assessment in the BioMAP Diversity Plus: SAg Assay (AID 2283096); conditions: primary human HUVEC with PBMC;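 further: cells read one day after compound addition; hits may be either gain or loss of signal compared with DMSO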
Summary of the method: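 Human umbilical vein endothelial cells co-cultured with PBMC, read 24 h after compound dosing. Total protein measured by sulforhodamine B staining (0.1% SRB after 10% TCA fixation, absorbance 560 nm); bidirectional fit versus DMSO baseline.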

[9] = target: human Esterase Plasma (ES), BCHE (gene 590) (UniProt P06276); test: NVS_ENZ_hES: NovaScreen (NVS) Enzymatic Assay for human Esterase Plasma (ES) (AID 2283157; active means hit-call score of the fitted dose curve at least 0.9, where 1 is the maximum)
Summary of the method: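 Esterase from human plasma, cell-free, colorimetric absorbance read 0.25 h after dosing. Screened at 25 uM in duplicate, with threshold-passing chemicals run in concentration-response up to 50 uM; loss of signal fitted versus DMSO.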

[10] = target: Peroxisome proliferator-activated receptor gamma (Homo sapiens) (UniProt P37231); test: ATG_PPARg_TRANS: Attagene TRANS-FACTORIAL HepG2 Assay for human Peroxisome Proliferator-activated Receptor-gamma (PPARg) (AID 2283007; active means hit-call score of the fitted dose curve at least 0.9, where 1 is the maximum)
Summary of the method: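 Twenty-four hours after chemical dosing of transiently transfected HepG2 cells, isolated RNA was converted to cDNA, reporter sequences amplified and 6-FAM-labelled, then HpaI-digested and analysed by capillary electrophoresis. Signal increase against DMSO was fitted.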

[11] = target: guinea pig Sigma Receptor, Non-selective Binding, SIGMAR1 (gene 100135589) (UniProt Q60492); test: NVS_OR_gSIGMA_NonSelective: NovaScreen (NVS) Nuclear Receptor Binding Assay for guinea pig Sigma Receptor, Non-selective Binding (AID 2283367; active means hit-call score of the fitted dose curve at least 0.9, where 1 is the maximum)
[12] = LTEA_HepaRG_LDH_cytotoxicity: Cytotoxicity Assessment in the Life Technologies and Expression Analysis (LTEA) Assay (AID 2283563; active means hit-call score of the fitted dose curve at least 0.9, where 1 is the maximum;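 further: LDH activity released into spent culture medium as a marker of cell death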)
Summary of the method: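 Differentiated human HepaRG cells, plated 48 h beforehand, were switched to serum-free induction medium and exposed for 48 h to eight half-log concentrations (top 100 uM) in 0.5% DMSO. LDH was measured in spent medium; activity was fitted relative to DMSO vehicle.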

[13] = target: human Peroxisome Proliferator-activated Receptor delta (PPARd), PPARD (gene 5467) (UniProt Q03181); test: ATG_PPARd_TRANS: Attagene TRANS-FACTORIAL HepG2 Assay for human Peroxisome Proliferator-activated Receptor delta (PPARd) (AID 2283002; active means hit-call score of the fitted dose curve at least 0.9, where 1 is the maximum)
Summary of the method: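 HepG2 cells transiently transfected with GAL4-UAS multiplexed reporter units driven by exogenous chimeric NR-GAL4 proteins; 24 h compound exposure. Reporter mRNA measured by RT-PCR, 6-FAM primer extension, HpaI digestion and capillary electrophoresis; gain of signal fitted relative to DMSO.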

[14] = target: Bile acid receptor (Homo sapiens) (UniProt Q96RI1); test: OT_FXR_FXRSRC1_1440: Odyssey Thera (OT) 24-hour HEK293T Protein-Complementation Assay for Farnesoid X receptor/SRC-1 Co-activator (AID 2283384; active means hit-call score of the fitted dose curve at least 0.9, where 1 is the maximum)
Summary of the method: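 Cell-based binding reporter: interaction of FXR with SRC-1 brings reporter fragments together, giving a fluorescence signal read 24 h after dosing of HEK293T cells.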

[15] = CEETOX_H295R_OHPREG: CeeTox H295R High-throughput Steroidogenesis Assay for OH-Pregnenolone (OHPREG) (AID 2283434); conditions: actives raise or lower the signal
[16] = CEETOX_H295R_ESTRONE: CeeTox H295R High-throughput Steroidogenesis Assay for Estrone (AID 2283441); conditions: actives raise or lower the signal;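 further: estrone secreted into medium measured by LC-MS/MS after dansyl derivatization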
Summary of the method: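 H295R cells; 48 h forskolin (10 uM) prestimulation; 48 h compound exposure, 0.1% DMSO final. Medium estrone: MTBE extraction, dansyl derivatization, HPLC-MS/MS. Bidirectional fit vs DMSO.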

[17] = CEETOX_H295R_MTT_cell_viability: Viability Assessment in the CeeTox HT-H295R MTT Assay (AID 2283718)

Measured: AC50

Sequence of UniProt Q03181 (Q03181 whole entry, looked up, the tested form may be a part): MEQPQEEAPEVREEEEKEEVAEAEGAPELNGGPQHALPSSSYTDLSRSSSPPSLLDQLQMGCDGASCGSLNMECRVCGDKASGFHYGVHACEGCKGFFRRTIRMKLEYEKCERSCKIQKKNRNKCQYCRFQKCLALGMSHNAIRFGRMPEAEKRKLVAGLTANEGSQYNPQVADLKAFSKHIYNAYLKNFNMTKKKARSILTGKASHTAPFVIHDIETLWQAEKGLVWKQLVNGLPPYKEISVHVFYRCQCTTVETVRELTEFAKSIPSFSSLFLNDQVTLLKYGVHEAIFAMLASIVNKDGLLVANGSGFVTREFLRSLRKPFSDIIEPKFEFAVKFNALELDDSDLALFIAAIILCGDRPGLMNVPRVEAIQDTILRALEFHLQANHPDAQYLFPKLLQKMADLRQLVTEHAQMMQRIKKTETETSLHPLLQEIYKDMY
Sequence of UniProt P19793 (P19793 whole entry, looked up, the tested form may be a part): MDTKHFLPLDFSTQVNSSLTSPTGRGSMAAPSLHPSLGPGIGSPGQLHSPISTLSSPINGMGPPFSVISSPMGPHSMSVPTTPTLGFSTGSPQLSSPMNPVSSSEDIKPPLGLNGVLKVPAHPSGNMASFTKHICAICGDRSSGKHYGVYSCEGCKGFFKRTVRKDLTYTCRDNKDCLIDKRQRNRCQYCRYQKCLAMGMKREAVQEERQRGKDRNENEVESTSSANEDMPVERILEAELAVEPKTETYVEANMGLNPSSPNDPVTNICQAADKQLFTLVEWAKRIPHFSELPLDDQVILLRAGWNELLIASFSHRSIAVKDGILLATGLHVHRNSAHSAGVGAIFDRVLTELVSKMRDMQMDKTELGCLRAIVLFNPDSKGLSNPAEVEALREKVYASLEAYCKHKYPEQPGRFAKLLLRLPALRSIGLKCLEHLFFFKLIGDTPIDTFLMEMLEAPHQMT
Sequence of UniProt Q96RI1 (Q96RI1 whole entry, looked up, the tested form may be a part): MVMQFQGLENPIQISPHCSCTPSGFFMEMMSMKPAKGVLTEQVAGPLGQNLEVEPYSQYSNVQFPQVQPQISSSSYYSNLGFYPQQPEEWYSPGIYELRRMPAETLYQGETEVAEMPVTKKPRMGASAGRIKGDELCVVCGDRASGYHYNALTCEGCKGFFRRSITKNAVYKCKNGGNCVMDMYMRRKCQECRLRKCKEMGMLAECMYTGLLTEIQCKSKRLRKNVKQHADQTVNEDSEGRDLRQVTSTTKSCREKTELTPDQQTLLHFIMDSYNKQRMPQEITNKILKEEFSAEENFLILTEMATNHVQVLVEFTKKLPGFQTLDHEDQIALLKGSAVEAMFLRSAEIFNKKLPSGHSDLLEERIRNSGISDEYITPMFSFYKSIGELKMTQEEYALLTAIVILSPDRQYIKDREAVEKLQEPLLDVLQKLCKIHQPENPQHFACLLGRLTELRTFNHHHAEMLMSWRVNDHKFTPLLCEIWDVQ
Sequence of UniProt P06276 (P06276 whole entry, looked up): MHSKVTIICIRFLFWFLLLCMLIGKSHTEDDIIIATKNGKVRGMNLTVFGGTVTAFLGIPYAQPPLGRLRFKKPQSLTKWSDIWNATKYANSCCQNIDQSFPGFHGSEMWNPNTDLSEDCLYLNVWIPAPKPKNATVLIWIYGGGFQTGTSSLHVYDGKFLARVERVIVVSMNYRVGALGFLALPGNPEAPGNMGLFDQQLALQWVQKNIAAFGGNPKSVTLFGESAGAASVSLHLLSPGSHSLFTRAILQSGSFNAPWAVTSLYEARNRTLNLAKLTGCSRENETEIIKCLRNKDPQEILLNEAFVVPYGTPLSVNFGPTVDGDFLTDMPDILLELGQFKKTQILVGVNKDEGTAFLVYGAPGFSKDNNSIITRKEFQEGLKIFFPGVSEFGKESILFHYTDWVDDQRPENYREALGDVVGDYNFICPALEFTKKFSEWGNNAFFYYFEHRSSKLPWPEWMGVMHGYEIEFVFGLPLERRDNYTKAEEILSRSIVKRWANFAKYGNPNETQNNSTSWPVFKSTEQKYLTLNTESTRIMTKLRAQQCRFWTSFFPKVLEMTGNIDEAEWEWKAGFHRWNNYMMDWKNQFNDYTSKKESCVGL
Sequence of human Retinoic Acid Receptor gamma (RARg), RARG (gene 5916) (P13631 whole entry, looked up, the tested form may be a part): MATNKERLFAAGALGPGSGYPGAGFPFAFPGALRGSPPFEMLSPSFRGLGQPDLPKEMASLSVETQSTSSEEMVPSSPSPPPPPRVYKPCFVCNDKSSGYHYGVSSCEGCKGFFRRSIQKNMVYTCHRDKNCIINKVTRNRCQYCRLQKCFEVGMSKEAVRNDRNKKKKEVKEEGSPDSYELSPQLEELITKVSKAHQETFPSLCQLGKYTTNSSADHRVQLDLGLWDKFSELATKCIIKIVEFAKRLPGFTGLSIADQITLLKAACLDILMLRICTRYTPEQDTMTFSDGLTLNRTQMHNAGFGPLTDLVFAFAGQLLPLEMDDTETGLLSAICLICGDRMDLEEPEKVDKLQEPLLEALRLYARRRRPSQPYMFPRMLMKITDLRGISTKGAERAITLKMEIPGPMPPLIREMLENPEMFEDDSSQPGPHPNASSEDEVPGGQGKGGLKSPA
Sequence of UniProt P37231 (P37231 whole entry, looked up): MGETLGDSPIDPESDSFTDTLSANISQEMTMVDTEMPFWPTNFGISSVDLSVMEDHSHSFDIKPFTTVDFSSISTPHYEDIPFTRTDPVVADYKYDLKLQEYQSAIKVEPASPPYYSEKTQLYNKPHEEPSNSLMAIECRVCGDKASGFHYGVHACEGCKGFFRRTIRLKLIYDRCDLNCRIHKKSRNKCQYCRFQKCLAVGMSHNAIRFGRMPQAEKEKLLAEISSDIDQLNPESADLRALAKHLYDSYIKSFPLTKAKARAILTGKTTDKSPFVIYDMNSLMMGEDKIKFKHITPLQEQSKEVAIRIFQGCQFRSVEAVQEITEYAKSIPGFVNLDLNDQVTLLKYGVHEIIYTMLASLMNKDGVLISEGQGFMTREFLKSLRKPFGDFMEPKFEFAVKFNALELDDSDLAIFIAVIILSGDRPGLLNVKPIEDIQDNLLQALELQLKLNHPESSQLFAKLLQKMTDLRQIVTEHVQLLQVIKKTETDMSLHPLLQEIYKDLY
Sequence of UniProt Q60492 (Q60492 whole entry, looked up): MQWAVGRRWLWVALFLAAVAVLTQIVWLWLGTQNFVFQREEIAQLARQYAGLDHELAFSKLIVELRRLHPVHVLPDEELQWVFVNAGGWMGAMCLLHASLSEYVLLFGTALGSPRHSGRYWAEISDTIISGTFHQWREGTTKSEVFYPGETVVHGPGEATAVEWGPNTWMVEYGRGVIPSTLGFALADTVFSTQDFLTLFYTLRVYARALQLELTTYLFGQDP

CCCCCCc1ccc(O)cc1O
inactive: [2] | [3] | [9]
active: [1] 31.8 µM | [4] 31.1 µM | [5] 30.1 µM | [6] 36.5 µM | [7] 31.1 µM | CD69, CD69 (gene 969) 35.3 µM | [8] 30.5 µM

CCCCCCCCCCCC[N+](C)(C)Cc1ccccc1
active: [10] 52.3 µM

CC(=O)NC1(c2cccc(F)c2)CCN(CC[C@@]2(c3ccc(Cl)c(Cl)c3)CN(c3ccccc3)C(=O)CO2)CC1
active: [11] 10.7 µM | [12] 59.8 µM
inactive: [1]

OC1CCC(C2CCCCC2)CC1 (centres undefined)
inactive: [13] | [14] | [15] | [16] | [17]
